# Source: US20260273051A1, “A DOSING REGIMEN” (HaemaLogiX Ltd., priority 2023, published 2026)
# B1: KM: humanized form of K121 anti-KMA antibody; VH of SEQ ID NO: 1 and VL of SEQ ID NO: 2 (antibody)
# heavy: EVQLQQSGAELVKPGASVKLSCTASGFNIKDTYMHWVKQRPEQGLEWIGRIDPANGNTKYDPKFQGKATIIADTSSNTAYLQLSSLTSEDTAVYYCARGVYHDYDGDYWGQGTTLTVSSASTKGPSVFPLAPSSKSTSGGTAALGCLVKDYFPEPVTVSWNSGALTSGVHTFPAVLQSSGLYSLSSVVTVPSSSLGTQTYICNVNHKPSNTKVDKRV[skipping human IgG1 Fc]
# light: DIVMTQSQKFMSTSVGDRVSVTCKASQNVGTNVAWYQQKPGQSPKALIYSTSYRYSGVPDRFTGSGSGTDFTLTISNVQSEDLAEYFCQQYNSYPYTFGGGTKLEIKRTVAAPSVFIFPPSDEQLKSGTASVVCLLNNFYPREAKVQWKVDNALQSGNSQESVTEQDSKDSTYSLSSTLTLSKADYEKHKVYACEVTHQGLSSPVTKSFNRGEC
# Columns and labels:
# [1] = Early investigational study of four dose levels of KM: detection of KM over time; format: in vivo, human; conditions: 0.3, 1.0, 3.0, 10 mg/kg; even at the lower doses; assay data up to Day 45
# Experimental: An early investigational study looking at four dose levels of KM (0.3 mg/kg, 1.0 mg/kg, 3.0 mg/kg, 10 mg/kg) was undertaken. […] As such, taken together with the known potential for monoclonal antibody induced immunotoxicity at higher doses, anti-KMA antibodies were considered good candidates for low dosing. Accordingly, the phase IIb study described below was designed based on these low doses.
# [2] = tested on: relapsed/refractory multiple myeloma (KRRMM); assay: Phase IIb multi-centre open label sequential cohort study: efficacy (CBR, ORR, PFS, OS, DoR, TTNT, sFLC), with Rd-MRDR matched registry controls; format: in vivo, human
# Text: (§1) Phase IIb, multi-centre, open label sequential cohort study evaluating kappamab (KM) alone (KM, Stage 1) and then KM in combination with lenalidomide (LEN) and dexamethasone (DEX) (KM-Rd, Stage 2) in relapsed/refractory multiple myeloma (KRRMM). Key inclusion criteria for both stages were progressive kappa-restricted multiple myeloma (KMM) (as per International Myeloma Working Group (IMWG) criteria, Kumar et al. 2016), 1-3 prior lines of therapy and no prior LEN exposure.
# (§2) Recruitment was planned for 60 patients in total, with an initial intention to treat 30 patients per stage. In Stage 1, patients received KM (10 mg/kg intravenous (IV) infusion) weekly for 8 weeks then every 4 weeks as maintenance. In Stage 2, KM dosing was as per Stage 1 with the addition of LEN, 25 mg Days 1-21 of each 28-day cycle and DEX 40 mg weekly, apart from Cycle 1 which was of 35 days duration (28-day cycles from Cycle 2 onwards) as patients commenced LEN for 21 days and DEX 1 week prior to starting KM (FIG. 1). All patients received anti-viral, thromboembolic prophylaxis and osteolytic prophylaxis as per institutional practice. Treatment continued until unacceptable toxicity, progression, death or withdrawal of consent. Response rates and any adverse events (AEs) were periodically assessed.
# The overall response rate (ORR), overall survival (OS) and progression free survival (PFS) of the KM-Rd cohort was compared to a contemporaneous control group of KMM patients who had received Rd for RRMM (Rd-MRDR group), identified via the Australian and New Zealand Myeloma and Related Diseases Registry (MRDR) (www dot mrdr dot net dot au/), who were matched for age, gender and prior lines of therapy (Table 3). […] Both the KM-Rd and MRDR cohorts had 26% of patients with ISS stage 3 at baseline, while the KM cohort had 33% who were ISS stage 3 at baseline. A limitation of this Rd-MRDR dataset was that patients had their disease status recorded only every 4 months, however an advantage of this dataset was that OS was regularly cross referenced with the Australian Institutes of Health and Welfare National Death Index (www dot aihw dot gov dot au/about-our-data/our-data-collections/national-death-index). Importantly, both the KM-Rd cohort and the Rd MRDR controls were treated within the same time period and with similar supportive care and access to both reimbursed pomalidomide and carfilzomib but neither CD38 nor BCMA targeting immune therapies.
# The primary endpoint for both Stage 1 and Stage 2 was the clinical benefit rate (CBR). Patients were evaluated every 28 days for both OS and PFS while on study. Comparison of CBR, ORR, OS and PFS between KM-Rd and Rd-MRDR groups was done after the data cut-off. […]
# Demographic and baseline characteristics were compared between the KM-Rd cohort and the Rd-MRDR controls using a Chi-squared test. CBR and ORR were estimated as simple percentages and 95% credible intervals (CI) were calculated as specified in the protocol using the pbeta and qbeta functions in R Version 4. A descriptive analysis of each of the time-to-event endpoints (DoR, TTNT, OS and PFS) in each stage used the Kaplan-Meier (product-limit) method to estimate the survival functions, with conventional 95% confidence intervals (CI) for the median survival time, DoR, TTNT, OS and PFS calculated using the Brookmeyer and Crowley method. […]
# [3] = tested on: patients with relapsed/refractory multiple myeloma (KRRMM); assay: Phase IIb study: safety (adverse events, infusion-related reactions, discontinuations); format: in vivo
# Text: as §1, §2
# [4] = treatment emergent non-haematologic AE
molecule,measurement,setting,value
B1,KM could still be detected until,[1],≥ 15 days
same,discontinuation for progression,[2]; at the study censor date,84%
same,Clinical Benefit Rate (CBR),[2]; minimal response or better per IMWG criteria,5%
same,median OS,[2]; overall survival,not reached
same,Overall Response Rate (ORR),[2]; partial response or better per IMWG criteria,5%
same,median PFS,[2]; progression free survival,2.0 months
same,haematologic toxicities,[3]; KM alone (Stage 1),no haematologic toxicities reported
same,"Grade 1 infusion related reactions, number",[3]; Stage 1,one
same,"Grade 2 infusion related reactions, number",[3]; Stage 1,two
same,patients who experienced an infusion related reaction (IRR),"[3]; Stage 1, 3/19 patients",15.8%
same,KM-related IRRs,[3]; infrequent and low-grade,14%
same,"Abdominal pain, All grade",[3]; [4],5%
same,"Cellulitis, All grade",[3]; [4],10%
same,"Cellulitis, Grade 3",[3]; [4],5%
same,"Diarrhoea, All grade",[3]; [4],5%
same,"Fatigue, All grade",[3]; [4],32%
same,"Infusion related reaction, All grade",[3]; [4],16%
same,"Pain, All grade",[3]; [4],5%
same,"Rash, All grade",[3]; [4],16%
same,"URTI, All grade",[3]; [4],5%
